# Sequences with one replicate were seen in a single cluster, so their values are uncertain.
# System: ATP
# Assay: switch fluorescence ratio, 500 uM ATP over buffer (Cy3 cluster intensity, sum of 5 cycles each) (fold (ratio)); higher = stronger signal-on switching upon ATP binding; sequences stand for … in TCGTCGGCAGCGTCAGATGTGTATAAGAGACAGTTTTTTTTTTTTTTTTTTTTTTTTT…TC
# Conditions: aptamer strand: ATP DNA aptamer (quencher-CACCTGGGGGAGTATTGCGGAGGAAGG + anchor), 100 nM annealed; ATP concentration: 500 uM; one replicate
# How it was run: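 Cy3-labelled switching-strand clusters on a modified Illumina MiSeq flow-cell were annealed to 100 nM quencher-labelled ATP aptamer and imaged first in selection buffer, then after 15 min with 500 uM ATP at 22 °C. NaOH stripping and re-annealing separated each of five buffer/ATP cycles, and clusters outside 100-1000 RFU were excluded. The fluorescence ratio sums target-cycle Cy3 intensity over buffer-cycle Cy3 intensity per cluster and averages it per switch-domain sequence.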
# 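Further: ATP exposure 15 min at 22 °C before imaging.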
row,Sequence,switch fluorescence ratio
1,GCGCGTATCC,1.06
2,GCGCGTTGTA,1.01
3,GCGCTACGCC,1.01
4,GCGCTAGGGT,1.01
5,GCGCTATTGA,1.02
6,GCGCTCTTCA,0.984
7,GCGCTGGAGG,0.99
8,GCGCTGTAAC,1.32
9,GCGCTGTCAC,1.44
10,GCGGAAATAT,0.983
11,GCGGAAGGTT,0.992
12,GCGGAGCAGG,1.09
13,GCGGATGGTA,1.02
14,GCGGCACTTG,1.02
15,GCGGCAGAGG,1
16,GCGGCATGGC,0.984
17,GCGGCATTAA,1.06
18,GCGGCGCGG,1.03
19,GCGGCTAAGA,1.02
20,GCGGCTAGAT,1.03
21,GCGGCTGAT,0.984
22,GCGGCTGCTT,0.985
23,GCGGCTGGTA,1
24,GCGGGACCGT,1
25,GCGGGACTTC,1.02

row,Sequence,switch fluorescence ratio
1,GCGGGAGAAC,1.03
2,GCGGGCATGA,1.03
3,GCGGGCGAAG,0.998
4,GCGGGCTACT,0.972
5,GCGGGGAGGC,1
6,GCGGGGGCCT,0.937
7,GCGGGGGTT,1
8,GCGGGGTCCT,1.02
9,GCGGGTGAAG,0.976
10,GCGGGTTGTG,0.968
11,GCGGTAGAGT,1.01
12,GCGGTAGGGG,1.01
13,GCGGTCAACC,0.989
14,GCGGTCACCT,1.13
15,GCGGTCAGAG,1.01
16,GCGGTCAGGT,0.963
17,GCGGTCGGGG,1.13
18,GCGGTGGAAT,0.986
19,GCGGTTAACT,1.02
20,GCGGTTCGGC,0.992
21,GCGGTTGAAA,1
22,GCGTAAAGCA,0.976
23,GCGTACGAAT,0.955
24,GCGTAGAAGG,1
25,GCGTAGGAGC,1.05

row,Sequence,switch fluorescence ratio
1,GCGTAGTCCG,0.988
2,GCGTATATAG,1.01
3,GCGTATATTC,1.07
4,GCGTCATGGC,1.02
5,GCGTCATTTG,0.979
6,GCGTCCTAAG,1
7,GCGTCCTGAC,1.13
8,GCGTCGGGTA,1.02
9,GCGTCTGAAT,0.99
10,GCGTCTGAGT,1.01
11,GCGTCTTCGG,1
12,GCGTGAACTA,1.04
13,GCGTGACGGT,0.977
14,GCGTGAGCTG,0.963
15,GCGTGCATAG,1.04
16,GCGTGCCGGT,0.989
17,GCGTGGGCAG,1
18,GCGTGTGGAT,1.01
19,GCGTGTGTTG,1.04
20,GCGTTAAGGT,1.01
21,GCGTTAGGGA,0.992
22,GCGTTCCGCT,1.03
23,GCGTTCGGTG,1.02
24,GCGTTGTGTT,0.931
25,GCGTTTATGA,0.99

row,Sequence,switch fluorescence ratio
1,GCGTTTTGTG,0.979
2,GCTAAAAGCA,0.997
3,GCTAAAAGTG,1.03
4,GCTAAAGGCG,0.999
5,GCTAAATCA,1.02
6,GCTAACACAT,0.988
7,GCTAACATAC,1.73
8,GCTAAGAGGG,1.01
9,GCTAAGTCTA,1
10,GCTAAGTTTT,0.964
11,GCTAATATAA,0.987
12,GCTAATATGT,0.972
13,GCTAATTGAC,1.04
14,GCTAATTTCT,1.03
15,GCTACACGTG,0.988
16,GCTACAGCCG,1.09
17,GCTACCAAC,1.3
18,GCTACCTGTA,1.05
19,GCTACTGAGT,1.03
20,GCTACTGTGA,1
21,GCTAGCAGCT,1
22,GCTAGCGGTT,1.03
23,GCTAGGCGAA,0.999
24,GCTAGTTCGT,1.31
25,GCTATAACTG,1.04

row,Sequence,switch fluorescence ratio
1,GCTATAATTT,1.01
2,GCTATCTTTG,1.02
3,GCTATGACTG,0.967
4,GCTATGGGTT,0.987
5,GCTATTCTTG,1
6,GCTCATGCAT,1.12
7,GCTCCACGTA,1.25
8,GCTCCATGAC,2.42
9,GCTCCTAGTA,1.03
10,GCTCGAATTG,0.965
11,GCTCGACCGG,0.954
12,GCTCGGCTGT,1.08
13,GCTCGGGGCA,0.954
14,GCTCGTACTA,1.04
15,GCTCGTCACG,0.95
16,GCTCTATTAA,1.05
17,GCTCTCACCA,1.07
18,GCTCTGCCT,1.09
19,GCTCTTTGTT,1.04
20,GCTGAAAATC,0.97
21,GCTGAATTGC,0.986
22,GCTGACGTGC,1.07
23,GCTGAGCCAT,1.03
24,GCTGAGCGGT,1.05
25,GCTGATCAAC,1.01

row,Sequence,switch fluorescence ratio
1,GCTGATCGGA,1.02
2,GCTGATTTTA,1.01
3,GCTGCAGGCC,1.03
4,GCTGCATGGC,1.13
5,GCTGCATTCA,1.02
6,GCTGCATTGT,1
7,GCTGCCCATT,0.978
8,GCTGCCCGGA,1.03
9,GCTGCCGACT,1.04
10,GCTGCTGGTG,1.1
11,GCTGGAAGAA,0.996
12,GCTGGACCTG,1.03
13,GCTGGACGGG,0.996
14,GCTGGATTAT,0.978
15,GCTGGCAGGG,1.02
16,GCTGGCATTA,0.984
17,GCTGGCCCGG,1.05
18,GCTGGCGACA,1.02
19,GCTGGGCAGT,0.999
20,GCTGGGCGAA,0.992
21,GCTGGGCGCT,0.972
22,GCTGGGCGTT,1.04
23,GCTGTAGCCT,1.02
24,GCTGTAGCGT,0.993
25,GCTGTCCATG,0.968

row,Sequence,switch fluorescence ratio
1,GCTGTGACGT,1.02
2,GCTGTGATCG,1.01
3,GCTGTGCGTG,1.13
4,GCTGTTAATC,0.964
5,GCTGTTATAA,1.01
6,GCTGTTGCCT,0.983
7,GCTTATATTC,0.972
8,GCTTATGAAA,0.984
9,GCTTATGCTA,1.02
10,GCTTCAACAG,1.09
11,GCTTCCGATG,2.95
12,GCTTGATA,0.955
13,GCTTGCGGTT,0.988
14,GCTTGCTAAC,0.989
15,GCTTGCTCTA,1.02
16,GCTTGGAATG,1.02
17,GCTTGGTTGC,0.96
18,GCTTGTTTAG,1.01
19,GCTTTAACGT,0.997
20,GCTTTAAGGC,1.03
21,GCTTTAGGGG,1.02
22,GCTTTCATTA,1.02
23,GCTTTGCAGG,0.977
24,GCTTTTAATA,0.99
25,GCTTTTACCG,1.04

row,Sequence,switch fluorescence ratio
1,GCTTTTGAAC,0.998
2,GCTTTTGTCG,1.02
3,GCTTTTTATG,0.991
4,GGAAAGATTA,0.993
5,GGAAAGCGAG,0.958
6,GGAAAGGGAA,1.07
7,GGAAATTAGC,0.927
8,GGAACCCGGC,0.988
9,GGAACCCTAG,1.02
10,GGAACCGTGC,1.32
11,GGAACGCCG,0.948
12,GGAACGTACC,1.73
13,GGAACTTTGA,0.992
14,GGAAGAAACT,0.995
15,GGAAGAGCTG,1.09
16,GGAAGATTAC,1.05
17,GGAAGCAGTC,1.03
18,GGAAGGAGGT,1.04
19,GGAAGGGTAG,1
20,GGAAGTATC,0.986
21,GGAAGTATGA,0.972
22,GGAAGTTCTT,1
23,GGAATAAATA,0.989
24,GGAATAATC,1
25,GGAATAGCCC,0.989
